Measured values reported in the supplement of paper PMC12067230.
This is a noisy data set.

Experiment: amyloid nucleation score relative to library mode (yeast Sup35 reporter selection) (log enrichment difference); higher = more amyloid nucleation; sequences are the first 22 residues of the Bri2 peptide extended by up to 12 random residues
Conditions: random library (experiment): 1;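 active = nucleation score significantly above 0 at FDR 0.05; inactive = not significantly above 0 or absent from output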
Experimental: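 Random C-terminal extensions of the 22-aa Bri2 peptide by 12 NNK codons; premature stops give shorter extensions. Peptides were fused to the Sup35 nucleation domain in S. cerevisiae [psi-pin-] and selected on -ADE-URA plates for 7 d at 30 °C. The nucleation score is log(output/input), centred to the mode of each of 3 independent libraries (1 input, 3 technical output replicates), with duplicates merged. Sequences absent from the output ('random_non_nuc') were imputed with the library mode value, so they are given as censored (<). Nucleators are scores significantly >0 at FDR 0.05.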
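Further: [psi-pin-] Saccharomyces cerevisiae expressing SupN fusions, induced by 100 µM Cu2SO4, selected 7 d at 30 °C without adenine and uracil, scored by deep sequencing of output versus input.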

| Sequence | amyloid nucleation score |
| --- | --- |
| EASNCFAIRHFENKFAVETLICAPGCGTGPARSR | inactive |
| EASNCFAIRHFENKFAVETLICAPGDSFLLVEMV | inactive |
| EASNCFAIRHFENKFAVETLICAPNLVTMQVCSL | 6.11 |
| EASNCFAIRHFENKFAVETLICAPRRSCYRIALC | inactive |
| EASNCFAIRHFENKFAVETLICAPTFWRPGGGVV | 4.98 |
| EASNCFAIRHFENKFAVETLICAPTVGTQGDLYV | inactive |
| EASNCFAIRHFENKFAVETLICAPVMGVCSVCPR | 6.87 |
| EASNCFAIRHFENKFAVETLICAPWIYS | inactive |
| EASNCFAIRHFENKFAVETLICAPWLPTLSPGSL | 3.31 |
| EASNCFAIRHFENKFAVETLICAPWRDQGCAIRR | inactive |
| EASNCFAIRHFENKFAVETLICAPWVRSDRRGVG | 1.41 |
| EASNCFAIRHFENKFAVETLICAQ | -0.273 |
| EASNCFAIRHFENKFAVETLICAQAAGYRLSGIG | inactive |
| EASNCFAIRHFENKFAVETLICAQDPTKLCRPA | 5.13 |
| EASNCFAIRHFENKFAVETLICAQINDGVFAISK | 5.07 |
| EASNCFAIRHFENKFAVETLICAQMVLRLLVPML | inactive |
| EASNCFAIRHFENKFAVETLICAQSALMR | inactive |
| EASNCFAIRHFENKFAVETLICAQSPHSPHRVVI | inactive |
| EASNCFAIRHFENKFAVETLICAQSSKLKLLIHG | 4.49 |

Same assay, conditions: random library (experiment): 2

| Sequence | amyloid nucleation score |
| --- | --- |
| EASNCFAIRHFENKFAVETLICAPFSNVC | 7.29 |
| EASNCFAIRHFENKFAVETLICAPHGC | 4.91 |
| EASNCFAIRHFENKFAVETLICAPLVSSQSVYNI | inactive |
| EASNCFAIRHFENKFAVETLICAPNILLNHEGLN | 4.91 |
| EASNCFAIRHFENKFAVETLICAPPTYD | inactive |
| EASNCFAIRHFENKFAVETLICAPWDAGWFSVCV | 2.93 |
| EASNCFAIRHFENKFAVETLICAQEMRNRKLCLC | inactive |
| EASNCFAIRHFENKFAVETLICAQFKNKYEGRFE | 0.598 |
| EASNCFAIRHFENKFAVETLICAQHIDKLACWSR | 4.38 |
| EASNCFAIRHFENKFAVETLICAQLLISFNVQSG | inactive |
| EASNCFAIRHFENKFAVETLICAQLQTRSRPWLT | inactive |
| EASNCFAIRHFENKFAVETLICAQPTCFIQIVGS | 4.23 |

Same assay, conditions: random library (experiment): 3

| Sequence | amyloid nucleation score |
| --- | --- |
| EASNCFAIRHFENKFAVETLICAPFPTSRRMRGT | inactive |
| EASNCFAIRHFENKFAVETLICAPHIRAMELNER | inactive |
| EASNCFAIRHFENKFAVETLICAPLWSHPGSCTR | 6.95 |
| EASNCFAIRHFENKFAVETLICAPM | 4.79 |
| EASNCFAIRHFENKFAVETLICAPQRPCRVRAPR | inactive |
| EASNCFAIRHFENKFAVETLICAPSKAYVVGV | inactive |
| EASNCFAIRHFENKFAVETLICAPSTGWSLWR | inactive |
| EASNCFAIRHFENKFAVETLICAPV | inactive |
| EASNCFAIRHFENKFAVETLICAPVFARYLGGNA | 6.19 |
| EASNCFAIRHFENKFAVETLICAPVVSLTLQWS | 6 |
| EASNCFAIRHFENKFAVETLICAPWTLLARWVLE | 5.07 |
| EASNCFAIRHFENKFAVETLICAPYYATGEGPRK | inactive |
| EASNCFAIRHFENKFAVETLICAQCSWRCKGITP | 4.08 |
| EASNCFAIRHFENKFAVETLICAQHRSRCYRM | 4.05 |
| EASNCFAIRHFENKFAVETLICAQPRTV | inactive |
| EASNCFAIRHFENKFAVETLICAQRKAGGKERWS | inactive |
| EASNCFAIRHFENKFAVETLICAQRWPVA | inactive |
